According to PubChem BioAssay AID1508623 (National Center for Advancing Translational Sciences (NCATS), 2021):
The whole screen tested about 48,000 compounds, of which about 450 (0.94%) were called active. About 19% were inconclusive and are not listed. Calls follow the shape of the dose curve; as a rule, active = well fitted inhibition curve with a large enough effect; inconclusive = small, poorly fitted or top-dose-only effect; inactive = no such curve, though single readings can be large or run the other way. Some of the results follow.

experiment: Primary qHTS for Identification of Small Molecule Inhibitors of Huntingtin Promoter Activity; settings: HEK293 HTT promoter firefly luciferase reporter (activity 0% = vehicle and -100% = no light), 24 h; series mostly up to 57.5 µM; activity change, negative = inhibition: at the top concentration; also: nearly all actives have a fitted effect of over 50% in size
Summary of the method: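 HEK293 Fluc reporter, 2,500 cells/well, 24 h pre-culture; cpds up to 57.5 uM final, 24 h 37 degrees C; Dual-Glo, 10 min RT; normalized vehicle = 0%, zero RLU = -100%.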

For `CCN(CC)CCCNC(=O)c1cn(CC)c2ccc(S(=O)(=O)N3CCC(C)CC3)cc2c1=O`, which “activity change, negative = inhibition” value is on record?
The value was inactive: -0.835%.

For `Cc1cc(=O)n(CC(=O)N2CCCCC2)c2c1c(C)nn2C`, which “activity change, negative = inhibition” value is on record?
The value was inactive: -3.32%.

Which “activity change, negative = inhibition” value does the source give for `CN(C1CCCCC1)S(=O)(=O)c1ccc2c(c1)c(=O)c(C(=O)N1CCN(c3ccccc3)CC1)cn2C` here?
The value was inactive: -2.49%.

For `O=C(O)c1ccc(NC(=O)c2ccc(Cl)c(S(=O)(=O)N3CCCCCC3)c2)cc1`, which “activity change, negative = inhibition” value is on record?
The value was inactive: -7.68%.

Which “activity change, negative = inhibition” value does the source give for `O=S(=O)(NCCS(=O)(=O)N1CCN(c2ccccc2)CC1)c1ccccc1` here?
The value was inactive: -29.3%.

For `COC(=O)c1ccc(NC(=O)C(C)Sc2nc(=O)cc(N)n2CCc2ccccc2)cc1` (stereo not drawn), which “activity change, negative = inhibition” value is on record?
The value was inactive: -17.8%.

With `Cc1nc2c3ccccc3nc(NNC(=O)CCC(=O)O)n2n1` as the compound, how does the “activity change, negative = inhibition” value read?
The value was inactive: 2.98%.

Which “activity change, negative = inhibition” value does the source give for `Cc1ccc(NC(=O)CN2C(=O)CCSc3ccccc32)c(C)c1` here?
Its value is inactive: -10%.

With `COc1ccc(CCNC(=O)c2ccc3c(c2)nc(C)n3-c2ccc(Br)cc2)cc1OC` as the compound, how does the “activity change, negative = inhibition” value read?
The value was inactive: -26.1%.

Which “activity change, negative = inhibition” value does the source give for `Nc1ccc(S(=O)(=O)NCc2ccccc2)cc1` here?
The value was inactive: -5.36%.

Which “activity change, negative = inhibition” value does the source give for `O=C(Nc1ccc(Cl)cc1Cl)c1cc(S(=O)(=O)NCc2ccc3c(c2)OCO3)ccc1F` here?
The value was inactive: -28.7%.

Which “activity change, negative = inhibition” value does the source give for `Cc1ccccc1NC(=O)c1cc2c([nH]c1=O)CC(C)(C)CC2=O` here?
Its value is inactive: 74.6%.

For `COc1ccccc1Cn1cc(C(=O)c2ccccc2)c(=O)c2cc(OC)c(OC)cc21`, which “activity change, negative = inhibition” value is on record?
The value was inactive: 2.16%.

Which “activity change, negative = inhibition” value does the source give for `COc1cc(OC)c(NC(=O)C2=C(C)C(=O)OC23CCN(C(C)=O)CC3)cc1Cl` here?
The value was inactive: -1.66%.

Which “activity change, negative = inhibition” value does the source give for `Cc1ccc(-n2ncc3c(=O)n(Cc4cccc(Cl)c4)cnc32)cc1C` here?
The value was inactive: -5.16%.

For `Cc1ccc(CSc2nc3cccnc3n2Cc2ccc(C(=O)NC3CC3)cc2)cc1`, which “activity change, negative = inhibition” value is on record?
The value was inactive: 9.61%.

For `O=C(NCc1ccccc1)c1cccn1-c1nnc(N2CCCCC2)s1`, which “activity change, negative = inhibition” value is on record?
Its value is inactive: -22%.

For `CC1CC(OC(=O)c2ccccc2O)CC(C)(C)C1` (stereo not drawn), which “activity change, negative = inhibition” value is on record?
The value was inactive: 6.79%.

Which “activity change, negative = inhibition” value does the source give for `COc1ccc(Cn2c(C(=O)O)c(CNCc3ccco3)c3ccc(C)cc32)cc1` here?
Its value is inactive: -17.1%.

With `COCCNC(=O)CSc1c(C)cnc2c1c(=O)n(C)c(=O)n2C` as the compound, how does the “activity change, negative = inhibition” value read?
Its value is inactive: -5.57%.

For `Cc1ccc(NC(=O)Cn2cnc3c(oc4ccccc43)c2=O)cc1Cl`, which “activity change, negative = inhibition” value is on record?
Its value is inactive: 7.78%.

For `COc1ccc(NC(=O)CCCOc2cc(=O)n(C)c3ccccc23)c(OC)c1`, which “activity change, negative = inhibition” value is on record?
The value was inactive: 23.8%.

With `CCCn1c2ccccc2c2cnn(CC(=O)NCCc3ccc(S(N)(=O)=O)cc3)c(=O)c21` as the compound, how does the “activity change, negative = inhibition” value read?
The value was inactive: -7.62%.

Which “activity change, negative = inhibition” value does the source give for `Cn1c(NCc2cccc(Cl)c2)nc2ccccc21` here?
The value was inactive: -2.46%.

Which “activity change, negative = inhibition” value does the source give for `C=Cc1ccc(CN2C(=O)N(c3ccc(C)c(C)c3)S(=O)(=O)c3ccccc32)cc1` here?
Its value is inactive: -23.3%.

With `CCOc1ccc(NC(=O)c2cc3cc4ccc(C)cc4nc3o2)cc1` as the compound, how does the “activity change, negative = inhibition” value read?
Its value is inactive: 8.9%.

Which “activity change, negative = inhibition” value does the source give for `Brc1cccc(-c2nnn3c2nc(NC2CCCCC2)c2ccccc23)c1` here?
The value was inactive: -11.4%.

With `Cc1nn(-c2ccc(N3CCOCC3)nn2)c(C)c1CCC(=O)NCc1ccc(Cl)cc1` as the compound, how does the “activity change, negative = inhibition” value read?
The value was inactive: -32%.

With `CC1CCCCN1CCNC(=O)c1ccc(Cn2c(SCc3ccccc3)nc3cccnc32)cc1` (stereo not drawn) as the compound, how does the “activity change, negative = inhibition” value read?
The value was inactive: 32.4%.

For `COc1ccc2nc3sc(C(=O)NCCc4ccc(Cl)cc4)cc3cc2c1`, which “activity change, negative = inhibition” value is on record?
Its value is inactive: -3.78%.

For `COc1ccc(-c2nc3ccccc3o2)cc1NC(=O)COc1cc(C)cc(C)c1`, which “activity change, negative = inhibition” value is on record?
The value was inactive: -2.59%.

With `Cc1oc2c(c1C(=O)Nc1ccc(OC(F)(F)F)cc1)C1=NCCN1C=N2` as the compound, how does the “activity change, negative = inhibition” value read?
The value was inactive: -5.49%.

For `COc1ccc(NS(=O)(=O)c2cnc(N)nc2)cc1Cl`, which “activity change, negative = inhibition” value is on record?
The value was inactive: -11.8%.

With `CC(=O)c1ccc(Oc2ncnc3c2oc2ccccc23)cc1` as the compound, how does the “activity change, negative = inhibition” value read?
Its value is inactive: 54.1%.

Which “activity change, negative = inhibition” value does the source give for `COc1ccc(NC(=O)CCS(=O)(=O)c2cc3c4c(c2)CCN4C(=O)CC3)c(OC)c1` here?
Its value is inactive: -8.16%.

With `COc1ccc(C(=O)c2c(N)c(C(=O)Nc3ccccc3Cl)c3ccccn23)cc1` as the compound, how does the “activity change, negative = inhibition” value read?
Its value is inactive: -18.7%.

Which “activity change, negative = inhibition” value does the source give for `O=C(COc1ccc2oc3c(c2c1)CCCC3)Nc1cccc(Br)c1` here?
Its value is inactive: -1.83%.

Which “activity change, negative = inhibition” value does the source give for `Cc1cc(=O)[nH]c2nnc(SCC(N)=O)n12` here?
Its value is inactive: -8.55%.

For `COc1cc(C(=O)NCCc2sc(-c3ccc(C)cc3)nc2C)cc(OC)c1OC`, which “activity change, negative = inhibition” value is on record?
Its value is inactive: -19.4%.

Which “activity change, negative = inhibition” value does the source give for `CC1CCN(C(=O)Cn2cc(SCC(=O)NCc3ccc(F)cc3)c3ccccc32)CC1` here?
The value was inactive: -19.3%.

Which “activity change, negative = inhibition” value does the source give for `CCCCc1ccc(C(=O)c2c(N)c(C(=O)Nc3cccc(OC)c3)c3ccccn23)cc1` here?
Its value is inactive: -5.58%.

With `Cc1nnc(N2C(=O)c3oc4ccccc4c(=O)c3C2c2cccc(OCCC(C)C)c2)s1` (stereo not drawn) as the compound, how does the activity change, negative = inhibition read?
Its activity change, negative = inhibition is inactive: -15.6% [at 11.5 µM].

With `COCCCNC(=O)c1c(NC(=O)Cc2coc3cc(C)ccc23)sc2c1CCCC2` as the compound, how does the “activity change, negative = inhibition” value read?
The value was inactive: -38.1%.

Which “activity change, negative = inhibition” value does the source give for `COc1ccc(C(=O)/C=C/c2cn(CC(O)CN3CCCCCC3)c3ccccc23)cc1OC` (stereo not drawn) here?
Its value is inactive: -20%.

Which “activity change, negative = inhibition” value does the source give for `O=[N+]([O-])c1cc(-c2nc(-c3ccccc3)no2)ccc1NCc1ccco1` here?
Its value is inactive: 49.4%.

For `Cc1ccc(-c2noc(-c3ccc(N4CCOCC4)c([N+](=O)[O-])c3)n2)cc1`, which “activity change, negative = inhibition” value is on record?
Its value is inactive: -30.9%.

For `COc1ccc(NC(=O)CSc2nc3ccccc3nc2N2CCOCC2)c(OC)c1`, which “activity change, negative = inhibition” value is on record?
Its value is inactive: -18.8%.

Which “activity change, negative = inhibition” value does the source give for `Cc1ccc(C(=O)c2oc3ccccc3c2NC(=O)COc2ccccc2C)cc1` here?
The value was inactive: 10.8%.
